# Laboratory results: article PMC4336329 (PLoS ONE, 2015)
# Screen size: about 310,000 compounds; about 14,000 (4.5%) showed an effect of 50% or more. The effect is printed as a negative number. The list shows a part of the results.
# Target: human ether-à-go-go-related gene (hERG) potassium channel (human, UniProt Q12809)
# Assay: primary screen, population patch clamp on CHO cells stably expressing hERG
# 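Also: peak tail current of the secondary pulse compared with the same well before compound.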
# Chain of human ether-à-go-go-related gene (hERG) potassium channel (Q12809 whole entry, looked up): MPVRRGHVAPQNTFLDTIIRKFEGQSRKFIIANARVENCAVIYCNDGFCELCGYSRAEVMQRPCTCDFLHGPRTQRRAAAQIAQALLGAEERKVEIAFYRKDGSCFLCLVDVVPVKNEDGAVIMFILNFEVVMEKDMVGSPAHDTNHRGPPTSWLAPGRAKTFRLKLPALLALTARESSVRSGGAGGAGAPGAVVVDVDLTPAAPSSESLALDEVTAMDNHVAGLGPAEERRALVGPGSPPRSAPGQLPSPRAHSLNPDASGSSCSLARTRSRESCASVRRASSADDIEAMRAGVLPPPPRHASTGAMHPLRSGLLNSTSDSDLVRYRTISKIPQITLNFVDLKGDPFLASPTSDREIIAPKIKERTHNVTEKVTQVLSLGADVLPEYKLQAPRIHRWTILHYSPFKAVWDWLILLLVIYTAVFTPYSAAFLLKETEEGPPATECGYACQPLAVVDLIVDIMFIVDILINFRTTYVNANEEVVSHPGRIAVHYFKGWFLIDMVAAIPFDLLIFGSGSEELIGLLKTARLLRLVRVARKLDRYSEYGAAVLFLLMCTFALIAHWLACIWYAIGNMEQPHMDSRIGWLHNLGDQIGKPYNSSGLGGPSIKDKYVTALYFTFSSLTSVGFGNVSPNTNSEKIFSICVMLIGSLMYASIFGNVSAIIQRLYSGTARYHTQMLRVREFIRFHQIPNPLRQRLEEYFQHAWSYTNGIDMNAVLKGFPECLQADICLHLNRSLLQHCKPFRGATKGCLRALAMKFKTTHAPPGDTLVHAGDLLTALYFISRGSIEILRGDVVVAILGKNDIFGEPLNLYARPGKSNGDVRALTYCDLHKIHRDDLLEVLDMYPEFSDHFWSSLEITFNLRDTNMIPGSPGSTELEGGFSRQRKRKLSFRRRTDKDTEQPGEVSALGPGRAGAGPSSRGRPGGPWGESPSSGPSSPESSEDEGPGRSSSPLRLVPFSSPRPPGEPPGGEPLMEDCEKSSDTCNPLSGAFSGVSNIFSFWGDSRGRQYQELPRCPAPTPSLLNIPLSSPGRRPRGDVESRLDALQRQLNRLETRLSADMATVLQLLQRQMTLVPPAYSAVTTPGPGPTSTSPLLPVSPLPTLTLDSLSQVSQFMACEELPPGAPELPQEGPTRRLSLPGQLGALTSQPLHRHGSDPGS
row,Structure (SMILES),"hERG current change (%, negative = inhibition) at 10uM [%]"
1,COc1ccc(OC(C)C(=O)N(C)Cc2nc(-c3cccc(C)c3)no2)cc1 (stereo not drawn),-7.38
2,Cl.c1ccc2c(c1)CN1CCCC1=N2,-2.64
3,CCS(=O)(=O)Nc1cccc(C2=NN(S(C)(=O)=O)C(c3ccccc3)C2)c1 (stereo not drawn),-14.6
4,c1ccc(CSc2nnc3ccc(-c4cccs4)nn23)nc1,3.64
5,O=C(NCCCl)NNC(=O)c1cc2ccccc2cc1O,8.07
6,O=C(O)/C=C/c1cn(-c2ccccc2)nc1-c1cc2ccccc2oc1=O,6.56
7,O=C(CNCc1cccnc1)Nc1cc(C(F)(F)F)ccc1N1CCOCC1.O=C(O)C(=O)O,-67
8,CC(C)(C)N(Cc1ccccc1)C(=O)COC(=O)C1CCN(c2ccc(C(F)(F)F)cn2)CC1,21.9
9,O=C(O)C1CC(c2cccc(Br)c2)=NO1 (stereo not drawn),13.1
10,O=C(COC(=O)C12CC3CC(CC(C3)C1)C2)NC12CC3CC(CC(C3)C1)C2,5.33
11,O=C(NNC1=Nc2ccccc2SC1)c1ccc(F)cc1,4.18
12,CC1(C)O[C@@H]2[C@H](O1)[C@@H](COS(=O)(=O)[O-])O[C@H]2n1ccc(=O)[nH]c1=O.[K+],11.7
13,COCCN(CC(=O)Nc1ccccc1)S(=O)(=O)c1ccc(S(=O)(=O)N2CCCC2)cc1,11
14,Cc1ccc(C)c(S(=O)(=O)Nc2ccc3[nH]c(=O)[nH]c3c2)c1,15.7
15,COc1cc(/C=N/NC(=O)c2ccncc2)ccc1Oc1ccc([N+](=O)[O-])cn1,-33.3
16,CCc1c(C(=O)NCc2ccccc2Cl)[nH]c(C)c1C(C)=O,-3.66
17,O=c1n(Cc2ccccc2F)c2ccccc2n1Cc1ccccc1F,19.4
18,CCOc1ccc(C(C(=O)NC2CCCCC2)N(C(=O)Cc2cccs2)c2ccc(-n3cnnn3)c(OC)c2)cc1 (stereo not drawn),-15.7
19,CC(=O)Nc1ccc(NC(=O)CSc2nnc(NC(=O)c3ccco3)s2)cc1,-5.89
20,CCc1nc(Nc2ccc(N3CCN(C(C)=O)CC3)cc2)c2oc3ccccc3c2n1.Cl,-43.7
21,Cc1cc(C)n(-c2nnc(C)n2NS(=O)(=O)c2ccc(F)cc2)n1,4.61
22,COc1ccc(C(=O)Nc2ccc(CN3CCOCC3)cc2)cc1,-1.82
23,Cc1c(NC(=O)COc2cccc(Cl)c2Cl)c(=O)n(-c2ccccc2)n1C,-71.4

row,Structure (SMILES),"hERG current change (%, negative = inhibition) at 10uM [%]"
1,C=CCn1c(COc2ccc(F)cc2)nnc1SCC(=O)Nc1cccc(S(N)(=O)=O)c1,3.43
2,COc1cc(OC)cc(-c2c(-c3cccs3)c3cc(-c4ccc(OC)nc4)ccc3n2C)c1,3.4
3,COc1ccc(CNCCC(c2ccc(OC(C)C)cc2)c2ccccc2OC)cc1OC (stereo not drawn),-71.3
4,CCOc1cc(/C=C2\SC(=S)N(Nc3ccccc3)C2=O)ccc1O,4.85
5,O=C(C1CCN(C2CCN(Cc3ccc4c(c3)CCO4)CC2)CC1)N1CCCC1,-43
6,COC(=O)c1ccc(CSc2ccc3nnc(-c4ccccc4)n3n2)o1,-53.5
7,CC(C)CC(=O)N1CCN(Cc2ccc(Cl)cc2)CC1,-9.67
8,COc1ccc(S(=O)(=O)N2CCCN(CC(=O)Nc3ccccc3F)CC2)cc1,-55.7
9,CCCNc1nc(Nc2ccc(C)cc2)nc(N2CCCC2)n1,-30.6
10,CCc1nnc(NC(=O)c2ccc(S(=O)(=O)N3CCCC3)cc2)s1,14.7
11,COc1ccccc1NC(=S)N1CCNC(=O)C1CC(=O)Nc1cccc(C)c1 (stereo not drawn),-13.2
12,CCCCC(=O)Nc1ccc(C(=O)Nc2cccnc2)cc1,-7.52
13,C=CCN1C(=O)NC(=O)/C(=C/c2cnc(SC)nc2)C1=O,-5.78
14,CN1CCN(C(=O)c2ccccc2NC(=O)C(C)(C)C)CC1,12.2
15,CCN(c1ccc(F)cc1)S(=O)(=O)c1cccc2nsnc12,2.4
16,CC1(C)CC(C)(c2ccc(O)cc2O)N(c2ccc3ccccc3c2)C(=S)N1 (stereo not drawn),7.99
17,S=C(Nc1cccnc1)Nc1ccccn1,8.48
18,CCS(=O)(=O)N1Cc2ccccc2CC1C(=O)Nc1cccc(S(=O)(=O)N(C)C)c1 (stereo not drawn),16.2
19,COCCNc1cc(C)nc2c(-c3ccccc3OC)c(C)nn12,0.113
20,COc1cc([N+](=O)[O-])ccc1NC(=O)CN1CCc2cc(OC)c(OC)cc2C1,-22.1
21,O=C(O)c1ccc(C(=O)c2ccc3c(c2)C(=O)N(CC2CCCO2)C3=O)cc1 (stereo not drawn),12.5
22,C=CCC1NS(=O)(=O)OCC1NC(=O)OCC(Cl)(Cl)Cl (stereo not drawn),2.88
23,CCn1ncc(C2=NOC(C(=O)NCC(C)C)C2)c1C (stereo not drawn),1.39

row,Structure (SMILES),"hERG current change (%, negative = inhibition) at 10uM [%]"
1,O=[N+]([O-])c1ccccc1-n1cnc2ccccc21,-18.2
2,O=C(NC(C(=O)O)c1ccccc1)c1ccccc1 (stereo not drawn),12.3
3,CCOc1ccc(CNC(=O)C(CC)n2nc(C)n3c(cc4occc43)c2=O)cc1OC (stereo not drawn),2.07
4,CCO[C@@H]1OC(C(N)=O)=C[C@H](c2cn(C(C)=O)c3ccccc23)[C@H]1CCCO,6.45
5,CCSc1nnc(-c2ccccc2SC)o1,1.26
6,Cc1ccc(C)c2[nH]c(=O)c(CCNC(=O)C(C)(C)C)cc12,8.5
7,Cc1nn(Cc2c(F)c(F)c(F)c(F)c2F)c(C)c1NC(=O)c1cccc(COc2ccccc2Cl)c1,-3.4
8,O=C(NN1CCOCC1)c1cc(-c2ccc(Br)cc2)nc2ccccc12,-30
9,O=C(CCN1CCOCC1)NCC1COc2ccccc2O1 (stereo not drawn),15.4
10,Cc1cccc(C(=O)NCC(=O)N2CCCCCCC2)c1,6.78
11,O=C(NC1CCCCCC1)c1ccc2nc3cc(Cl)ccc3c(=O)n2c1,7.94
12,Cn1cnnc1SCC(=O)NC1CCCN(Cc2ccc(Cl)cc2)C1 (stereo not drawn),-0.412
13,CC1(C)Oc2ccc3ccc(=O)oc3c2C(N2CCCCC2)C1O (stereo not drawn),-3.77
14,COc1ccc(NC(=O)Cn2c(CCC(=O)O)ccc2-c2ccccc2)cc1,11.5
15,CC(C)CC(=O)Nc1ncc([N+](=O)[O-])s1,17.9
16,O=C(NC(=S)Nc1ccccn1)c1cncc(Br)c1,-2.34
17,Cc1ccc(-c2nnn(CC(=O)N(CC3CCCO3)C(C(=O)NC(C)(C)C)c3ccc(F)cc3)n2)o1 (stereo not drawn),15.4
18,COc1ccc(/C=C/C(=O)NC(=S)N2CCN(C)CC2)cc1,-9.1
19,O=C(O)COc1ccc(F)cc1Br,5.42
20,Cc1cc2oc(=O)cc(CN3CCC(C)CC3)c2cc1Cl,5.75
21,O=C(OCc1cnc(Cl)s1)c1cccc(Cl)c1Cl,8.04
22,CC(C)CC(C)NC(=O)c1ccc(C(F)(F)F)cc1 (stereo not drawn),-5.96
23,COC(=O)c1ccc(OCC2c3cc(OC)c(OC)cc3CCN2C(C)=O)cc1 (stereo not drawn),8.8

row,Structure (SMILES),"hERG current change (%, negative = inhibition) at 10uM [%]"
1,CCc1ccc(-c2ccc(C(=O)O)c(C)n2)cc1,2.68
2,COc1ccccc1CNC(=O)c1ccc(S(=O)(=O)N2CCCC2)cc1,-6.43
3,COc1ccccc1/C=C/C=C(\C#N)C(=O)NC(C)c1ccccc1 (stereo not drawn),5.31
4,O=c1[nH]nc(CNc2ccc(O)cc2)c2ccccc12,-6.61
5,O=C(CCSCc1ccc(Cl)cc1)NC1CCCC1,-24.8
6,Cc1cccc(NC(=O)Cc2c(F)cccc2Cl)n1,5.01
7,CCN=c1sc(C(=O)OC)cc(=O)n1CC,13.1
8,O=C1CCc2cc(S(=O)(=O)NC(C(=O)N3CCN(c4ccccn4)CC3)c3ccccc3)ccc2N1 (stereo not drawn),-20.4
9,CC(C)C(=O)Nc1oc(-c2ccccc2)cc1C#N,15.2
10,CCOc1ccc(S(=O)(=O)n2cc(F)c(=O)[nH]c2=O)cc1,22.7
11,CCOc1ccccc1N(CC(=O)Nc1ccccc1F)S(=O)(=O)c1ccccc1,-2.97
12,O=C1Nc2ccccc2C(O)(C(=O)NCc2ccco2)N1c1ccccc1 (stereo not drawn),-5.07
13,CCC(C)C(NC(N)=O)C(=O)Nc1ccc(C)c(Cl)c1 (stereo not drawn),10.9
14,O=C(O)CCN=C1CCc2ccccc2N1,20.2
15,Cc1nc2cc(-c3ccc(F)cc3)[nH]n2c(=O)c1C,-2.48
16,Cc1cccc(NS(=O)(=O)c2ccc(NS(=O)(=O)c3cccs3)cc2)c1,2.35
17,O=C(Nc1ccccc1C(=O)N1CCOCC1)c1cc2ccccc2o1,15
18,CCOc1ccc(CC(=O)NNC(=S)Nc2ccc(OC)c(OC)c2)cc1,18.6
19,Nc1nc(-c2cc(-c3ccccc3)no2)cs1,9.7
20,Cc1ccc(OCC(=O)NC(=S)Nc2ccc3c4c(cccc24)CC3)cc1,14.6
21,COc1ccc(CNC(=O)Cn2ccc(N)nc2=O)cc1,13.6
